# Assay results published in the supplement of paper PMC8728848.
# The list shows a part of the results.
# B1: Siglec-7-SA-PE-180 (Homo sapiens), Q9Y286 (protein)
# chain: MLLLLLLPLLWGRERVEGQKSNRKDYSLTMQSSVTVQEGMCVHVRCSFSYPVDSQTDSDPVHGYWFRAGNDISWKAPVATNNPAWAVQEETRDRFHLLGDPQTKNCTLSIRDARMSDAGRYFFRMEKGNIKWNYKYDQLSVNVTALTHRPNILIPGTLESGCFQNLTCSVPWACEQGTPPMISWMGTSVSPLHPSTTRSSVLTLIPQPQHHGTSLTCQVTLPGAGVTTNRTIQLNVSYPPQNLTVTVFQGEGTASTALGNSSSLSVLEGQSLRLVCAVDSNPPARLSWTWRSLTLYPSQPSNPLVLELQVHLGDEGEFTCRAQNSLGSQHVSLNLSLQQEYTGKMRPVSGVLLGAVGGAGATALVFLSFCVIFIVVRSCRKKSARPAADVGDIGMKDANTIRGSASQGNLTESWADDNPRHHGLAAHSSGEEREIQYAPLSFHKGEPQDLSGQEATNNEYSEIKIPK
# Columns and labels:
# Test in all cases: glycan array binding signal (z-score within array); higher = stronger binding
# Details in all cases: glycan notation: IUPAC condensed, linker removed
# Gal6S(b1-4)GlcNAc6S = biological target: Gal6S(b1-4)GlcNAc6S
# Summary of the method: (§1)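 Arrays were curated from the Consortium for Functional Glycomics database, 3228 in total, and kept only where the protein sequence was available. Binding is expressed as a within-array Z-score. This score was averaged across arrays of the same protein sequence at different concentrations or buffers and across linkers, and negative values can be read as non-binding.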
# GalNAc(a1-3)Gal = biological target: GalNAc(a1-3)Gal
# Summary of the method: as §1
# GalNAc(a1-3)GalNAc = biological target: GalNAc(a1-3)GalNAc
# Summary of the method: as §1
# [1] = biological target: GalNAc(a1-3)GalNAc(b1-3)Gal(a1-4)Gal(b1-4)Glc
# Summary of the method: as §1
# [2] = biological target: GalNAc(a1-3)GalNAc(b1-3)Gal(a1-4)Gal(b1-4)GlcNAc
# Summary of the method: as §1
# GalNAc(b1-3)Gal = biological target: GalNAc(b1-3)Gal
# Summary of the method: as §1
# [3] = biological target: GalNAc(b1-3)Gal(a1-4)Gal(b1-4)GlcNAc
# Summary of the method: as §1
# [4] = biological target: GalNAc(b1-3)Gal(a1-4)Gal(b1-4)GlcNAc(b1-3)Gal(b1-4)Glc
# Summary of the method: as §1
# [5] = biological target: GalNAc(b1-3)Gal(a1-6)Gal(b1-4)Glc
# Summary of the method: as §1
# GalNAc(b1-3)GalNAc = biological target: GalNAc(b1-3)GalNAc
# Summary of the method: as §1
# GalNAc(b1-3)GlcNAc = biological target: GalNAc(b1-3)GlcNAc
# Summary of the method: as §1
# GalNAc(b1-4)Gal(b1-4)Glc = biological target: GalNAc(b1-4)Gal(b1-4)Glc
# Summary of the method: as §1
# GalNAc(b1-4)GlcNAc = biological target: GalNAc(b1-4)GlcNAc
# Summary of the method: as §1
# [6] = biological target: GalNAc(b1-4)GlcNAc(b1-2)Man
# Summary of the method: as §1
# [7] = biological target: GalNAc(b1-4)GlcNAc(b1-2)Man(a1-3)[GalNAc(b1-4)GlcNAc(b1-2)Man(a1-6)]Man(b1-4)GlcNAc(b1-4)GlcNAc
# Summary of the method: as §1
# [8] = biological target: GalNAc(b1-4)GlcNAc(b1-3)GalNAc(b1-4)GlcNAc
# Summary of the method: as §1
# GalNAc(b1-4)GlcNAc6S = biological target: GalNAc(b1-4)GlcNAc6S
# Summary of the method: as §1
# GalNAc(b1-6)GalNAc = biological target: GalNAc(b1-6)GalNAc
# Summary of the method: as §1
# GalNAc3S(b1-4)GlcNAc = biological target: GalNAc3S(b1-4)GlcNAc
# Summary of the method: as §1
# GalNAc3S(b1-4)GlcNAc3S = biological target: GalNAc3S(b1-4)GlcNAc3S
# Summary of the method: as §1
# [9] = biological target: GalNAc3S(b1-4)[Fuc(a1-3)]GlcNAc
# Summary of the method: as §1
# GalNAc4S6S(b1-4)GlcNAc = biological target: GalNAc4S6S(b1-4)GlcNAc
# Summary of the method: as §1
# GalNAc6S(b1-4)GlcNAc = biological target: GalNAc6S(b1-4)GlcNAc
# Summary of the method: as §1
# Glc(a1-4)Glc = biological target: Glc(a1-4)Glc
# Summary of the method: as §1
# [10] = biological target: Glc(a1-4)Glc(a1-4)Glc(a1-4)Glc
# Summary of the method: as §1
# Glc(a1-6)Glc(a1-6)Glc = biological target: Glc(a1-6)Glc(a1-6)Glc
# Summary of the method: as §1
# [11] = biological target: Glc(a1-6)Glc(a1-6)Glc(a1-6)Glc
# Summary of the method: as §1
# Glc(b1-4)Glc = biological target: Glc(b1-4)Glc
# Summary of the method: as §1
# Glc(b1-6)Glc = biological target: Glc(b1-6)Glc
# Summary of the method: as §1
# GlcA(b1-3)Gal = biological target: GlcA(b1-3)Gal
# Summary of the method: as §1
# GlcA(b1-3)GlcNAc = biological target: GlcA(b1-3)GlcNAc
# Summary of the method: as §1
# GlcA(b1-6)Gal = biological target: GlcA(b1-6)Gal
# Summary of the method: as §1
# [12] = biological target: GlcA3S(b1-3)Gal(b1-4)GlcNAc(b1-2)Man
# Summary of the method: as §1
# [13] = biological target: GlcA3S(b1-3)Gal(b1-4)GlcNAc(b1-3)Gal(b1-4)Glc
# Summary of the method: as §1
# [14] = biological target: GlcNAc(a1-3)Gal(b1-4)GlcNAc
# Summary of the method: as §1
# [15] = biological target: GlcNAc(a1-4)Gal(b1-3)GlcNAc
# Summary of the method: as §1
# [16] = biological target: GlcNAc(a1-4)Gal(b1-4)GalNAc
# Summary of the method: as §1
# [17] = biological target: GlcNAc(a1-4)Gal(b1-4)GlcNAc
# Summary of the method: as §1
binder,measurement,setting,value
B1,glycan array binding signal (z-score),Gal6S(b1-4)GlcNAc6S,2.43
same,glycan array binding signal (z-score),GalNAc(a1-3)Gal,-0.411
same,glycan array binding signal (z-score),GalNAc(a1-3)GalNAc,-0.472
same,glycan array binding signal (z-score),[1],-0.316
same,glycan array binding signal (z-score),[2],-0.177
same,glycan array binding signal (z-score),GalNAc(b1-3)Gal,-0.365
same,glycan array binding signal (z-score),[3],0.344
same,glycan array binding signal (z-score),[4],-0.27
same,glycan array binding signal (z-score),[5],-0.252
same,glycan array binding signal (z-score),GalNAc(b1-3)GalNAc,-0.028
same,glycan array binding signal (z-score),GalNAc(b1-3)GlcNAc,-0.342
same,glycan array binding signal (z-score),GalNAc(b1-4)Gal(b1-4)Glc,0.174
same,glycan array binding signal (z-score),GalNAc(b1-4)GlcNAc,0.69
same,glycan array binding signal (z-score),[6],-0.578
same,glycan array binding signal (z-score),[7],-0.325
same,glycan array binding signal (z-score),[8],0.047
same,glycan array binding signal (z-score),GalNAc(b1-4)GlcNAc6S,0.047
same,glycan array binding signal (z-score),GalNAc(b1-6)GalNAc,-0.316
same,glycan array binding signal (z-score),GalNAc3S(b1-4)GlcNAc,0.257
same,glycan array binding signal (z-score),GalNAc3S(b1-4)GlcNAc3S,2.05
same,glycan array binding signal (z-score),[9],0.264
same,glycan array binding signal (z-score),GalNAc4S6S(b1-4)GlcNAc,1.85
same,glycan array binding signal (z-score),GalNAc6S(b1-4)GlcNAc,-0.109
same,glycan array binding signal (z-score),Glc(a1-4)Glc,-0.298
same,glycan array binding signal (z-score),[10],0.005
same,glycan array binding signal (z-score),Glc(a1-6)Glc(a1-6)Glc,-0.077
same,glycan array binding signal (z-score),[11],-0.284
same,glycan array binding signal (z-score),Glc(b1-4)Glc,0.233
same,glycan array binding signal (z-score),Glc(b1-6)Glc,-0.08
same,glycan array binding signal (z-score),GlcA(b1-3)Gal,0.027
same,glycan array binding signal (z-score),GlcA(b1-3)GlcNAc,-0.229
same,glycan array binding signal (z-score),GlcA(b1-6)Gal,-0.205
same,glycan array binding signal (z-score),[12],-0.333
same,glycan array binding signal (z-score),[13],-0.241
same,glycan array binding signal (z-score),[14],-0.138
same,glycan array binding signal (z-score),[15],0.337
same,glycan array binding signal (z-score),[16],-0.175
same,glycan array binding signal (z-score),[17],-0.219
